# Measured values: the BET-seq Pho4 binding data (Le et al. 2018)
# This is one part of the list. The energies were worked out here from pooled read counts, against the library average; single values are noisy.
# Biological target: T1, Pho4 (S. cerevisiae) (UniProt P07270)
# T1 sequence: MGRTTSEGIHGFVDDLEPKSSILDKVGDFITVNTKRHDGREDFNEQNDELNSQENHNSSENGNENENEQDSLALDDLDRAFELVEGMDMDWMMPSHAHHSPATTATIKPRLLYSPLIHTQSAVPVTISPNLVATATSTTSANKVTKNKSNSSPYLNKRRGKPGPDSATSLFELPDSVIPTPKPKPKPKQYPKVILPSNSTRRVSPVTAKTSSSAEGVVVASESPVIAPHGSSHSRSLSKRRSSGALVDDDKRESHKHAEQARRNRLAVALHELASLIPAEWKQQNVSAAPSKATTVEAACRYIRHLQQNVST
# Assay: relative binding free energy (BET-seq); higher = weaker binding
# Details: reference: library average
row,Sequence,relative binding free energy [kcal/mol]
1,TTAAGCACGTGGGCCG,-0.19
2,GAGGGCACGTGAAATG,0.26
3,ATACTCACGTGAGTTT,0.29
4,AAGTGCACGTGCGGGG,-0.09
5,TTGGGCACGTGACAGT,0.04
6,GGCTACACGTGTATGG,0.08
7,TGGCGCACGTGGTGTG,-0.3
8,CTAGGCACGTGTGTAA,-0.09
9,CTGGTCACGTGGTGGG,0.14
10,TGAGGCACGTGATGTC,-0.02
11,CTGGGCACGTGAGTAG,0.12
12,CGGGTCACGTGTAATG,0.2
13,AGGAGCACGTGAGCTG,0.25
14,TGTTGCACGTGATTCG,0.2
15,ATTTGCACGTGGGCGT,-0.06
16,GGATTCACGTGAAAGT,0.53
17,GGATACACGTGGGATT,0.1
18,AGTTTCACGTGTAAAA,0.15
19,TGCGTCACGTGAATTG,0.24
20,TTATACACGTGGGACT,-0.07
21,GGATTCACGTGGGGGT,0.24
22,ATTTGCACGTGTATGC,-0.08
23,GAGTTCACGTGTAATG,0.39
24,AGGTTCACGTGGGGAG,0.21
25,GGGAGCACGTGAGGCG,0.05

row,Sequence,relative binding free energy [kcal/mol]
1,TCTTACACGTGGTGGG,0.07
2,GTGTTCACGTGGGGTA,0.16
3,TGAGACACGTGGGGCC,0.04
4,AATTGCACGTGTAGTG,-0.02
5,TATGTCACGTGATTGT,0.23
6,GTAGGCACGTGCAGGA,-0.14
7,AGTCTCACGTGAAGTT,0.45
8,GTTGCCACGTGCTGGT,0.01
9,GCGGGCACGTGTGTGC,-0.08
10,GGGGACACGTGGAAAG,0.23
11,GAGGTCACGTGGCATA,0.14
12,GTGTACACGTGGAGAA,0.12
13,TACGTCACGTGTGGTA,0.06
14,AATTACACGTGAATTG,0.24
15,TTTTTCACGTGAATGA,0.34
16,AACTACACGTGTGGTG,0.06
17,GAGTACACGTGTGTCG,0.21
18,TTGATCACGTGCGTAG,0.08
19,AGGTACACGTGGGTTC,0.09
20,GGCAGCACGTGAAGGT,0.07
21,TTTCGCACGTGCGTAG,-0.04
22,GGGGACACGTGATTCT,0.18
23,GGATGCACGTGGGGTG,-0.17
24,GGGCTCACGTGTATAT,0.36
25,TTGGGCACGTGGACAG,-0.14

row,Sequence,relative binding free energy [kcal/mol]
1,ATGGGCACGTGCGGCT,-0.13
2,GGACGCACGTGGAATG,0.09
3,TTAATCACGTGGCTGG,0.07
4,TTAGTCACGTGGTTCG,-0.02
5,GTTGACACGTGAGGCT,0.23
6,GGTTGCACGTGAAGCT,0.13
7,AGAATCACGTGTGTTT,0.15
8,CTCTACACGTGGGGTT,-0.02
9,GTGGCCACGTGAGAGT,0.16
10,TTAAGCACGTGACTTG,0.04
11,TGAGGCACGTGGACTT,0.04
12,ATGGTCACGTGGTGAA,-0.04
13,ATGCACACGTGGATGG,0.07
14,TTGGGCACGTGCTTGT,-0.14
15,GGCGGCACGTGTGAGC,0
16,GGTGCCACGTGGCCTG,0.05
17,TTTGCCACGTGGGTGG,-0.14
18,TGTACCACGTGTGCGG,-0.03
19,ATATACACGTGAATGG,0.19
20,ACGGACACGTGGGGCG,-0.16
21,TGATGCACGTGAGTTG,0.27
22,CGATACACGTGTGATG,0.19
23,GTGTTCACGTGATCAT,0.29
24,TCATTCACGTGGGGGG,0.24
25,TATTGCACGTGTTATA,-0.07

row,Sequence,relative binding free energy [kcal/mol]
1,CGTGTCACGTGGAGGT,0.08
2,AGTAGCACGTGAGTTG,0.12
3,ATGCTCACGTGTGCTT,0.15
4,GGATGCACGTGCTGTT,-0.02
5,GGGACCACGTGGGCGG,-0.11
6,ACGTACACGTGTGTAT,0.13
7,TGTGTCACGTGATATT,0.27
8,TGGACCACGTGGGAGA,-0.03
9,AGGTTCACGTGGTGCG,0.3
10,ATTATCACGTGTACTG,0.09
11,TAGGTCACGTGTAAAG,0.25
12,GGGATCACGTGGGTGA,0.08
13,TTTGTCACGTGCTAGG,0
14,GAAGGCACGTGAGTAT,0.18
15,ACTTGCACGTGTTGAG,0.01
16,GCGGTCACGTGCGTGC,0.15
17,CTAGGCACGTGGCGGT,-0.15
18,GGGTGCACGTGTACGT,0.04
19,GGGCGCACGTGGCTTG,-0.05
20,AGTTGCACGTGAGGAG,0.17
21,GGATACACGTGTGTGG,0.11
22,GTGTCCACGTGAGGTT,0.3
23,TTCCACACGTGGGGTG,-0.09
24,GCGAGCACGTGTCGGT,0
25,ATGCACACGTGTGGTA,0.06

row,Sequence,relative binding free energy [kcal/mol]
1,GATAGCACGTGGGCTT,-0.1
2,GAGTGCACGTGGCTGG,-0.1
3,TTGTGCACGTGGTAAG,0.01
4,CCTGGCACGTGGAGGT,-0.16
5,GTCATCACGTGTATGG,0.23
6,TTGATCACGTGCGGTA,0.08
7,TGGTTCACGTGAGCTA,0.39
8,AAGCACACGTGGTGTT,0.02
9,GGGGACACGTGGTTCA,-0.03
10,AAGTTCACGTGTCGAG,0.44
11,TCGTTCACGTGGTGAT,0.22
12,AGGCACACGTGTGTGG,0.11
13,GGTATCACGTGATGAG,0.21
14,CTAGGCACGTGTTTAA,-0.07
15,ATGAGCACGTGTAAGT,-0.03
16,GAGTGCACGTGTGGGG,0.14
17,TGACGCACGTGGGGAA,-0.24
18,TGAAGCACGTGGGATA,-0.1
19,TGATTCACGTGATCAG,0.34
20,TGTGTCACGTGACTCG,0.19
21,TATCTCACGTGCGTGT,0
22,GTCTTCACGTGAGAGG,0.47
23,AAATGCACGTGGGTCT,-0.03
24,GATGGCACGTGCAGGA,-0.07
25,ATAGTCACGTGGGCTG,-0.09

row,Sequence,relative binding free energy [kcal/mol]
1,GTTGCCACGTGGGGGA,-0.23
2,AATTTCACGTGTTTAA,0.22
3,GTTGACACGTGGGTAT,0.08
4,GGGATCACGTGTTAGG,0.08
5,GTTTACACGTGTAGAT,0.28
6,GTATGCACGTGTGGTA,0.04
7,ATTAACACGTGTGTGT,-0.03
8,GGTTACACGTGCAGGT,0.02
9,AAGGACACGTGGGATT,-0.04
10,TTATACACGTGATTGG,0.04
11,GGTATCACGTGAGTTT,0.35
12,GGCGACACGTGGTGAG,0.05
13,TTGGGCACGTGTTCTG,-0.02
14,TTGCGCACGTGAAATG,0.09
15,GCTTACACGTGTATGT,0.15
16,TAAGTCACGTGATTGA,0.11
17,GAGGTCACGTGAAATT,0.48
18,TTAGACACGTGGGTCT,-0.08
19,TTGTGCACGTGATCGG,0.04
20,GGCGTCACGTGGGATT,0.07
21,GGATACACGTGAGGGT,0.3
